From the RNAGym collection of RNA variant scans (doi:10.1093/nar/gkz1192)
The source gives no read counts; variants with many changes may rest on few reads.

B1: CPEB3 Ribozyme (parent)
chain: UAACAGGGGGCCACAGCAGAAGCGUUCACGUCGCAGCCCCUGUCAGAUUCUGGUGAAUCUGCGAAUUCUGCUGUAUAUCUC

Variants of: B1
Experiment: self-cleavage, relative activity (ratio to wild type); higher = more cleavage; in vitro, sequencing
Method in brief: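 CPEB3 self-cleaving ribozyme mutant libraries were made by rounds of error-prone PCR, barcoded, and transcribed in vitro with T7 RNA polymerase for 5 hours at 37°C. Cleavage occurred during transcription and a 15 min DNase I step before EDTA stop. RNAs were reverse transcribed with template switching and Illumina-sequenced, with DNA sequencing mapping barcodes to variants. Relative activity is the variant's cleaved/total read fraction divided by wild type's (minimum 5 reads), averaged across three batches.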
UAACAGGGGGCCACAGCAGAAGCGUUCACGUCGCUGCCCCUGUCAGAUUCUGGCGAAUCAGCGAAUUCUGCUGUAUAUCUC gave a self-cleavage of 0.13.
For UAACAGGGGGCCACAGCAGAAGCGUUCACGUCGCAACCCCUGUCAGACUCUGGUGAGUCAGCGAAUUCUGCUGUAUAUCUC, the self-cleavage was 0.08.
With UAACAGGGGGCCACAGCAGAAGCGUUCACGUCGCUGCCCCUGUCAGAUCCUGGUGAAUCUGCGGAUGCUGCUGUAUAUCUC the self-cleavage was 0.17.
In the case of UAACAGGGGGCCACAGCAGAAGCGUUCACGUCGCUGCCCCUGUCAGAUUCUGGCGAAUCUGCGAAUUCUGCUGUAUACCUC, the self-cleavage is reported as 0.45.
UAACAGGGGGCCACAGCAGAAGCGUUCACGUCGCAACCCCUGUGAGAUUAUGGUGAAUCUGCGAUUUCUGCUGCAUAUCUC gave a self-cleavage of 0.11.
Work on UAACAGGGGGCCACAGCAGAAGCGUUCACGUCGCACCCCCUGUCAGUUUCUGGCGAAUCUGCGAAUUCUGCUGUAUAUCUC yielded a self-cleavage of 0.1.
For UAACAGGGGGCCACAGCAGAAGCGUUCACGUCGCAUCCCAUGUCUGAUUCUGGUGAAUCUGCAAAUUCCGCUGUAUAUCUC, the self-cleavage was 0.13.
UAACAGGGGGCCACAGCAGAAGCGUUCACGUCGCUGCCCCAGUCGGAUUCUGGCGAAUCUGCGAAUUCUGCUGUAUAUCUC showed a self-cleavage of 0.17.
UAACAGGGGGCCACAGCAGAAGCGUUCACGUCGCUGCCCCUGGCAGAUUCUGGUGAAUCUGCGAAUCCCGCUGUAUAUCUC gave a self-cleavage of 0.16.
Work on UAACAGGGGGCCACAGCAGAAGCGUUCACGUCGCUGCCCCUGCCAGAUUCUGGAGGAUCUGCGAAUUCUGGUGUAUACCUU yielded a self-cleavage of 0.16.
Variant UAACAGGGGGCCACAGCAGAAGCGUUCACGUCGCUGCCCCCGUCGGAUUCUGGUGAACCUGAGAAUUCUGCUGUAUAUCUC has a self-cleavage of 0.09.
Work on UAACAGGGGGCCACAGCAGAAGCGUUCACGUCGCUGCCCCCGUCAGGUUCUGGUGGAUCUGCGAAUUCUGCUGUAAAUCUC yielded a self-cleavage of 0.19.
With UAACAGGGGGCCACAGCAGAAGCGUUCACGUCGCUGCCCCUGUCAGAUUCAGGUGAAUCUGCGGAAUCUGCUGUCUAUCUC the self-cleavage was 0.12.
For UAACAGGGGGCCACAGCAGAAGCGUUCACGUCGCUGCCCCUGUCAGAUUCCGGUGAAUCUGCGAAUUCCGCUGUAUGUCUC, the self-cleavage was 0.16.
For UAACAGGGGGCCACAGCAGAAGCGUUCACGUCGCACCCCCUGUCAGGUUCUGGUGAAUCUGCGAAUUCAGCUGCAUAUCUC, the self-cleavage was 0.06.
For UAACAGGGGGCCACAGCAGAAGCGUUCACGUCGCACCCCCUGUCAGAUUAUGGUGAAUCAGCGAAUUCCGCUGUAUAUCUC, the self-cleavage was 0.09.
Work on UAACAGGGGGCCACAGCAGAAGCGUUCACGUCGCUGCCCCUGUCAGAUCCUGGUGAAUCAGCGAAUUCUGCUGUAUAUCUC yielded a self-cleavage of 0.06.
UAACAGGGGGCCACAGCAGAAGCGUUCACGUCGCAACCCCUGUCAGAUUCAGGUGAAUCUGCAAACUCUGCUGUAUAUCUC gave a self-cleavage of 0.1.
For UAACAGGGGGCCACAGCAGAAGCGUUCACGUCGCUGCCCCUGCCAGAUUCUGGUGAACCUGCGAAUUCUGCUGUAUAUCUC, the self-cleavage was 0.15.
Work on UAACAGGGGGCCACAGCAGAAGCGUUCACGUCGCAACCCCAGUCAGAUUCUGGUGAAUCUACGAAUCCUGCUGUAUACCUC yielded a self-cleavage of 0.13.
Work on UAACAGGGGGCCACAGCAGAAGCGUUCACGUCGCUGCCCCUGCCAGAUUCCUGUGAAUCUGCGGAUUCUGCUGUAUAUCGC yielded a self-cleavage of 0.16.
Variant UAACAGGGGGCCACAGCAGAAGCGUUCACGUCGCUGCCCCUGUCAGAUUCCGGUGAAUCUGCGAAUCCUGCUGUAUACCUC has a self-cleavage of 0.2.
For UAACAGGGGGCCACAGCAGAAGCGUUCACGUCGCUGCCCCUGUCAGACUCUGGUGAAUCUGCGAAUUCAGCUGUAUAUCUC, the self-cleavage was 0.16.
UAACAGGGGGCCACAGCAGAAGCGUUCACGUCGCUGCCCCUGUCAGAUUCUGGAGAAUCUGCGUAUUCUGCUGUAUAUCUC showed a self-cleavage of 0.12.
For UAACAGGGGGCCACAGCAGAAGCGUUCACGUCGCUGCCCCGGUCAGAUCCUGGAGUAUCUGCGUAUUCAGCUGUAUAUCUC, the self-cleavage was 0.14.
UAACAGGGGGCCACAGCAGAAGCGUUCACGUCGCUGCCCCAGACAGAUUCUGGUGAGUCUGCGAAUUCUGCUGUAUGUCUC gave a self-cleavage of 0.14.
With UAACAGGGGGCCACAGCAGAAGCGUUCACGUCGCUGCCCCCGUCAGAUUCUGGCGAAUCUGCGUAUUCUGCUGUAUAUCUC the self-cleavage was 0.13.
UAACAGGGGGCCACAGCAGAAGCGUUCACGUCGCUGCCCCUGACAGAUUCUGGUGAAUCUGCGAAUACUGCUGUAUAUCUC showed a self-cleavage of 0.15.
Work on UAACAGGGGGCCACAGCAGAAGCGUUCACGUCGCUGCCCCUGUCAGAUUCUGGUGAAUCUGCAAAUUCUGCCGUAUAUCUC yielded a self-cleavage of 0.5.
UAACAGGGGGCCACAGCAGAAGCGUUCACGUCGCAACCCCCGUCAGAUUAUAGUGAAUCUGCGAAUUCUGCUGUAUAUCCC showed a self-cleavage of 0.24.
UAACAGGGGGCCACAGCAGAAGCGUUCACGUCGCUGCCCCUGACAGAUUCUGGUGAAUCUGCGAAUUCUGCCGUAUAUCUC showed a self-cleavage of 0.77.
Work on UAACAGGGGGCCACAGCAGAAGCGUUCACGUCGCUGCCCCUGUCAGAUUCUGGUGAAUCUGCGAAUUCUCCUGUAUACCUC yielded a self-cleavage of 0.1.
UAACAGGGGGCCACAGCAGAAGCGUUCACGUCGCUGCCCCUGUCAGAUUCUGGUGAAUCUGCGAAUCCUGCUGUUUAUCUC showed a self-cleavage of 0.35.
With UAACAGGGGGCCACAGCAGAAGCGUUCACGUCGCUGCCCCUGUCAGAUUCCGGUGCAUCUGCGAGUUCUGCUGUAUAUCUC the self-cleavage was 0.14.
Work on UAACAGGGGGCCACAGCAGAAGCGUUCACGUCGCUGCCCCUGUCAGAUUCUGGUGAAUCAGCGACUUCUGCUGUAUACCUC yielded a self-cleavage of 0.13.
In the case of UAACAGGGGGCCACAGCAGAAGCGUUCACGUCGCACCCCCUGUCGGAUUCUGGUGAAUUUGCGAAUUCUGCUGUAUAUCUC, the self-cleavage is reported as 0.39.
In the case of UAACAGGGGGCCACAGCAGAAGCGUUCACGUCGCUGCCCCUGCCAGAUUCUGGUGGAUCUGCGUAUUCUGCUGUAUAUCUC, the self-cleavage is reported as 0.17.
For UAACAGGGGGCCACAGCAGAAGCGUUCACGUCGCUGCCCCUGUCAGAUUCAGGUGAAUCUGCGAAUUCUGCAGUAUAUCUC, the self-cleavage was 0.24.
Variant UAACAGGGGGCCACAGCAGAAGCGUUCACGUCGCUGCCCCUGACAGAUUCCGGUGAAUCUGCGAAUUCUGCUGUAUAACUC has a self-cleavage of 0.18.
For UAACAGGGGGCCACAGCAGAAGCGUUCACGUCGCAACCCCUGCCAGAUUCUGGUGAAUCUGCGAAUUCCGCUGUAUAUCUC, the self-cleavage was 0.14.
UAACAGGGGGCCACAGCAGAAGCGUUCACGUCGCUGCCCCUGUCAGAUUCUGGUGAAUCCGCGAAUUCUGCCGUAUACCUC gave a self-cleavage of 0.19.
Variant UAACAGGGGGCCACAGCAGAAGCGUUCACGUCGCUGCCCCUGUCAGAUUCAGGUGUAUCUGCGAAUUCUGCUGUAUAUCUC has a self-cleavage of 0.29.
Variant UAACAGGGGGCCACAGCAGAAGCGUUCACGUCGCUGCCCCUGUCAGAUUCCGGUGAGUCUGCGAGUUCUGCUGUAUAUCUC has a self-cleavage of 0.18.
For UAACAGGGGGCCACAGCAGAAGCGUUCACGUCGCUGCCCCUGUCAGAUUCUGGGGAAUCUGCGAAUUCUGCUGCAUAUCUC, the self-cleavage was 0.87.
Variant UAACAGGGGGCCACAGCAGAAGCGUUCACGUCGCUGCCCCUGACAGAUUCUGGUGAAUCCGCGAAUUCCGCUGUAUAUCUC has a self-cleavage of 0.23.
Variant UAACAGGGGGCCACAGCAGAAGCGUUCACGUCGCUGCCCCCGUCAGAUUCUGGAGAAUCUGCGAAUUCUGCUGUAUAUCUC has a self-cleavage of 0.51.
Variant UAACAGGGGGCCACAGCAGAAGCGUUCACGUCGCAACCCCAGUCAGAUUCUGGUGAAUCUGCGAAUACAGCUGUAUAUCUC has a self-cleavage of 0.04.
Work on UAACAGGGGGCCACAGCAGAAGCGUUCACGUCGCUGCCCCGGUCGGAUUCUGGGGUAUCUGCGAAUUCUGCUGUAUAUCUC yielded a self-cleavage of 0.
In the case of UAACAGGGGGCCACAGCAGAAGCGUUCACGUCGCUGCCCCUGUCAGAUUCUGGUGAAUCUGCGAAUUCCGCUGUAUAUCCC, the self-cleavage is reported as 0.13.
Variant UAACAGGGGGCCACAGCAGAAGCGUUCACGUCGCAACCCCUGUCAGAUUCUGGUGAAUCUGCGUAUUCUGCUGUAUACCUC has a self-cleavage of 0.32.
UAACAGGGGGCCACAGCAGAAGCGUUCACGUCGCUGCCCCCGUCAGAUUCUGGUGAACCUGCGAAUUCUGCUGUAUAUCUC gave a self-cleavage of 0.34.
UAACAGGGGGCCACAGCAGAAGCGUUCACGUCGCACCCCCUGUCAGAUUCUAGUGAAUCUGAGAAUUCUGCUGUAUAUCUC gave a self-cleavage of 0.13.
Variant UAACAGGGGGCCACAGCAGAAGCGUUCACGUCGCUGCCCCCGUCAGAUUCUGGUGAAUCUGCGGAUUCUGCUGUAUAUCUC has a self-cleavage of 0.31.
UAACAGGGGGCCACAGCAGAAGCGUUCACGUCGCUGCCCCAGUCAGAUUCUGGUGAACCAGCGAAUUCUGCUGUAUAUCUC showed a self-cleavage of 0.11.
UAACAGGGGGCCACAGCAGAAGCGUUCACGUCGCUGCCCCUGUCAGAUUCUGGCGAAUCUGCGAAUCCUGCUGUUUAUCUC gave a self-cleavage of 0.07.
For UAACAGGGGGCCACAGCAGAAGCGUUCACGUCGCUGCCCCUGUCAGAUCCUGGUGAAUCUUCGAAUUCCGCCGUGUAUCUC, the self-cleavage was 0.08.
With UAACAGGGGGCCACAGCAGAAGCGUUCACGUCGCAACCCCCGUCAGAUUCAGGUGAAUCUGCGACUUCUGCUGUAUACCUC the self-cleavage was 0.1.
Work on UAACAGGGGGCCACAGCAGAAGCGUUCACGUCGCUGCCCCCGUCAGAUUCUGGUGAAUCUGCGAAUACUGCUGUUUAUCUC yielded a self-cleavage of 0.11.
For UAACAGGGGGCCACAGCAGAAGCGUUCACGUCGCUGCCCCUGUCAGACUCUGGCGAAUCUGCGAAUUCUGCCGUAUAUCUC, the self-cleavage was 0.38.
UAACAGGGGGCCACAGCAGAAGCGUUCACGUCGCUGCCCCUGUCAGAUUCUGGUGAAUCUGCGAAUACUGCUGUAUACAUC gave a self-cleavage of 0.07.
UAACAGGGGGCCACAGCAGAAGCGUUCACGUCGCUGCCCCUGUCAGAUCCUGGUGAAUCUGCGAAUUCUGCUGUAAACCUC gave a self-cleavage of 0.1.
UAACAGGGGGCCACAGCAGAAGCGUUCACGUCGCAUCCCCUGUCAGAUUCUGGUGAAUCUGCGCAUUCUGCUGUAUACCUC showed a self-cleavage of 0.1.
In the case of UAACAGGGGGCCACAGCAGAAGCGUUCACGUCGCUGCCCCUGUCAGACCCUGGCGAAUCUGCGAAUUCUGCUGUAUAUCUC, the self-cleavage is reported as 0.08.
For UAACAGGGGGCCACAGCAGAAGCGUUCACGUCGCUGCCCCUGACAGAACCUGGUGAAUCUGCGAAUUCUGCUGUAUAUCUC, the self-cleavage was 0.13.
In the case of UAACAGGGGGCCACAGCAGAAGCGUUCACGUCGCUGCCCCCGUCAGAUUCUGGUGGAUCUGCGAAUUCUGCUGUAUAUCAC, the self-cleavage is reported as 0.65.
Work on UAACAGGGGGCCACAGCAGAAGCGUUCACGUCGCUGCCCCUGUCAGAUUCUGGUGAAACUGGGAAUUCUGCUGUAUAUCUC yielded a self-cleavage of 0.13.
UAACAGGGGGCCACAGCAGAAGCGUUCACGUCGCUGCCCCUGUCAGAUUCUGGUUAACCUGCGAAUUCUGCUGUAUAUCUC showed a self-cleavage of 0.15.
With UAACAGGGGGCCACAGCAGAAGCGUUCACGUCGCUGCCCCCGGCAGAUUCUGGUGGAUCUGCGAAUUCUGCUGUAUGUCUC the self-cleavage was 0.11.
